# Assay results: PubChem BioAssay (EPA / NIEHS)
# Values joined by “and” are separate entries in the source; they are usually repeats but may differ in a detail not shown here. Equal values may be shown once. This list was built around the results that the source calls inconclusive (neither active nor inactive); the mix of calls is not that of the screen. For some assays here: Where the call is inconclusive, the potency comes from a doubtful curve fit. The source holds several records for some structures; these can differ, active in one and inactive in another. Active and inactive are the calls of the source. Rule for the calls: active = hit-call score of the fitted dose curve at least 0.9, where 1 is the maximum; inconclusive = response in the unintended direction; inactive = score below 0.9.
# What was measured:
# [1] = system: chicken Androgen Receptor (AR), gene 422165; assay: ATG_chAR_XSP2: Attagene TRANS-FACTORIAL Multi-Species (XSP2) HepG2 Assay for chicken Androgen Receptor (AR) (AID 2283819);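 note: hits raise reporter mRNA above DMSO so potency is for activation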
# Procedure, shortened: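 Readout is reporter mRNA induction via RT-PCR/capillary electrophoresis after 24 h chemical exposure, positive direction relative to DMSO. Transiently transfected HepG2 express chimeric chicken AR–GAL4; AR stimulated by 3 nM 6-alpha-fluorotestosterone and 1.5 nM norgestrel.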
# [2] = ATG_M_19_XSP2: Attagene TRANS-FACTORIAL Multi-Species (XSP2) HepG2 Assay for M32 Transcription Factor (Internal Marker) (AID 2283822)
# Procedure, shortened: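 Internal background marker in a multi-species nuclear receptor TRANS panel: transfected HepG2 cells exposed 24 h, with 3 nM 6-alpha-fluorotestosterone and 1.5 nM norgestrel present. Readout is RT-PCR of reporter transcripts resolved by capillary electrophoresis, gain-of-signal versus DMSO.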
# [3] = system: zebrafish Androgen Receptor (AR), gene 100005148; assay: ATG_zfAR_XSP2: Attagene TRANS-FACTORIAL Multi-Species (XSP2) HepG2 Assay for zebrafish Androgen Receptor (AR) (AID 2283825);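 note: hits raise reporter mRNA above DMSO so AC50 reflects agonist-type gain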
# Procedure, shortened: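 After 24 h compound exposure in medium with 3 nM 6-alpha-fluorotestosterone plus 1.5 nM norgestrel, HepG2 cells carrying zebrafish AR–GAL4 reporter constructs were assessed for reporter mRNA gain by RT-PCR and capillary electrophoresis.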
# [4] = ATG_M_32_XSP2: Attagene TRANS-FACTORIAL Multi-Species (XSP2) HepG2 Assay for M19 Transcription Factor (Internal Marker) (AID 2283826)
# Procedure, shortened: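 HepG2 cells transiently transfected with GAL4-UAS reporter transcription units, dosed with compound for 24 h in presence of 3 nM 6-alpha-fluorotestosterone and 1.5 nM norgestrel; reporter mRNA quantified by RT-PCR, FAM labelling, HpaI digestion and capillary electrophoresis.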
# [5] = system: frog Androgen Receptor (AR), gene 399456; assay: ATG_frAR_XSP2: Attagene TRANS-FACTORIAL Multi-Species (XSP2) HepG2 Assay for frog Androgen Receptor (AR) (AID 2283824);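 note: reporter mRNA from GAL4-UAS units driven by Xenopus AR-Gal4 chimera; actives raise reporter signal above DMSO so AC50 reflects agonist-like induction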
# Procedure, shortened: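 Reporter transcript induction, read by RT-PCR with fluorescent capillary electrophoresis, in human liver HepG2 cells carrying an exogenous Xenopus AR-Gal4 fusion and GAL4-driven reporters; chemical exposure 24 hours, activity scored upward against DMSO controls.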
# [6] = system: frog Estrogen Receptor (ER2), gene 100174814; assay: ATG_frER2_XSP2: Attagene TRANS-FACTORIAL Multi-Species (XSP2) HepG2 Assay for frog Estrogen Receptor (ER2) (AID 2283828)
# Procedure, shortened: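 Cells were transfected with reporter constructs under GAL4-UAS control, dosed with chemicals for 24 h, then lysed for RNA; the frog ER2-driven reporter mRNA was quantified by capillary electrophoresis of labeled PCR fragments, with activity fitted upward from DMSO.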
# [7] = system: zebrafish Estrogen Receptor (ER2b), gene 317733; assay: ATG_zfER2b_XSP2: Attagene TRANS-FACTORIAL Multi-Species (XSP2) HepG2 Assay for zebrafish Estrogen Receptor (ER2b) (AID 2283823);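 note: fitted upward as reporter gain over DMSO so potency reflects activation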
# Procedure, shortened: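 Read-out: fluorescent reporter mRNA, measured by RT-PCR then capillary electrophoresis after HpaI digestion. HepG2 cells carried transiently transfected multi-reporter TRANS constructs (NR-Gal4 chimeras); 24 h chemical exposure; activity scored upward versus DMSO control.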
# [8] = biological target: Estrogen receptor (Homo sapiens) (UniProt P03372); assay: ATG_hERa_XSP2: Attagene TRANS-FACTORIAL Multi-Species (XSP2) HepG2 Assay for human Estrogen Receptor (ERa) (AID 2283827)
# Procedure, shortened: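 Trans-activation of exogenous human ERa-Gal4 chimera read in HepG2 as reporter transcript after 24 h exposure; medium included 3 nM 6-alpha-fluorotestosterone and 1.5 nM norgestrel. Quantified by RT-PCR with capillary electrophoresis, positive-direction fitting against DMSO.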
# UniProt P03372, sequence (P03372 whole entry, looked up, the tested form may be a part): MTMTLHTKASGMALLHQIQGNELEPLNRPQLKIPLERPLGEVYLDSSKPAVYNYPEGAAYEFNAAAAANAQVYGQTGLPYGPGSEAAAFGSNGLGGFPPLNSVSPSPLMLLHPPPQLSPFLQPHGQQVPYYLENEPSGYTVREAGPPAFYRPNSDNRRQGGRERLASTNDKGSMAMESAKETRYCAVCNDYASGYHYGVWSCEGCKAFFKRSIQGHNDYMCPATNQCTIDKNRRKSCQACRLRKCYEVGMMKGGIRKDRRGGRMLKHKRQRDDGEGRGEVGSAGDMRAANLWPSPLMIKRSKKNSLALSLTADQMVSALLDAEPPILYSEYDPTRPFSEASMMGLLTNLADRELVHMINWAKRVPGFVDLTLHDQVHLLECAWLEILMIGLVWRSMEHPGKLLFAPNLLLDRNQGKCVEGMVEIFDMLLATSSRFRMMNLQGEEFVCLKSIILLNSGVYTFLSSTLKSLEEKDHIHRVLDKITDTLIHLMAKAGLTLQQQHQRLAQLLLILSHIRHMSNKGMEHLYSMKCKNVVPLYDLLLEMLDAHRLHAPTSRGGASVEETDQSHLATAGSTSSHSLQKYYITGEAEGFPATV
compound,measurement,setting,value
COP(=S)(OC)Oc1nc(Cl)c(Cl)cc1Cl,AC50,[1],active: 22.9 µM
same,AC50,[2],inconclusive: 100 µM
same,AC50,[3],inconclusive: 100 µM
same,AC50,[4],inconclusive: 100 µM
C=CC1(C)OC(=O)N(c2cc(Cl)cc(Cl)c2)C1=O (stereo unspecified),AC50,[3],inconclusive: 0.122 µM
C[C@]12CC[C@H](O)CC1=CC[C@@H]1[C@@H]2CC[C@]2(C)C(=O)CC[C@@H]12,AC50,[2],inconclusive: 100 µM
same,AC50,[5],inconclusive: 1.01 µM and inconclusive: 366 nM
same,AC50,[3],inconclusive: 4.44 µM and inconclusive: 1.52 µM
Oc1ccc(Cl)cc1Cc1ccccc1,AC50,[1],inconclusive: 7.51 µM
same,AC50,[2],inconclusive: 10 µM
same,AC50,[3],inconclusive: 10 µM
same,AC50,[4],inconclusive: 10 µM
C[C@]12CCC(=O)C=C1CC[C@@H]1[C@@H]2CC[C@]2(C)C(=O)CC[C@@H]12,AC50,[1],active: 0.379 µM
same,outcome,[1],inactive
same,AC50,[3],inconclusive: 246 nM and inconclusive: 0.00914 nM
same,AC50,[4],inconclusive: 19.2 nM and inconclusive: 0.265 nM
same,outcome,[6],inactive
Clc1ccc(C2(Cn3cncn3)CC(Br)CO2)c(Cl)c1 (stereo unspecified),AC50,[1],inconclusive: 100 µM
same,AC50,[2],inconclusive: 5.37 µM
same,outcome,[6],inactive
COCCl,AC50,[1],inconclusive: 34.8 µM
same,outcome,[1],inactive
same,outcome,[7],inactive
same,AC50,[3],inconclusive: 34.8 µM
same,outcome,[3],inactive
same,AC50,[4],inconclusive: 35 µM
CC(C)(O)C(=O)Nc1ccc([N+](=O)[O-])c(C(F)(F)F)c1,AC50,[1],inconclusive: 1.35 µM
same,AC50,[5],inconclusive: 0.262 µM
same,AC50,[3],inconclusive: 0.00914 µM
same,outcome,[4],inactive
CC1(C)C(C=C(Cl)Cl)C1C(=O)OC(C#N)c1ccc(F)c(Oc2ccccc2)c1 (stereo unspecified),AC50,[7],inconclusive: 100 µM
same,AC50,[5],inconclusive: 100 µM
same,AC50,[3],inconclusive: 100 µM
same,outcome,[8],inactive
same,AC50,[6],inconclusive: 100 µM
CCC(C)(C)c1ccc(O)cc1,outcome,[2],inactive
same,AC50,[5],inconclusive: 33.8 µM and inconclusive: 42.5 µM
same,AC50,[3],inconclusive: 100 µM and inconclusive: 32.7 µM
CCCN(CCOc1c(Cl)cc(Cl)cc1Cl)C(=O)n1ccnc1,AC50,[1],inconclusive: 33.4 µM
same,AC50,[5],inconclusive: 33.4 µM
same,AC50,[3],inconclusive: 33.4 µM
CCN(CC)C(=O)C(C)Oc1cccc2ccccc12 (stereo unspecified),AC50,[1],inconclusive: 166 µM
same,AC50,[5],inconclusive: 9.5 µM
same,AC50,[3],inconclusive: 58.6 µM
same,outcome,[4],inactive
Clc1ccc(C(c2ccccc2Cl)C(Cl)(Cl)Cl)cc1 (stereo unspecified),AC50,[1],inconclusive: 10 µM
same,AC50,[3],inconclusive: 2.24 µM
same,AC50,[4],inconclusive: 10 µM
CCC(C)c1ccc(O)cc1 (stereo unspecified),AC50,[1],inconclusive: 100 µM
same,AC50,[2],inconclusive: 1.84 µM
same,AC50,[5],inconclusive: 56.5 µM and inconclusive: 57 µM
same,AC50,[3],inconclusive: 40.3 µM and inconclusive: 9.1 µM
same,outcome,[4],inactive
COP(=S)(OC)Oc1ccc(SC)c(C)c1,AC50,[5],inconclusive: 34.7 µM
same,AC50,[3],inconclusive: 62.2 µM
same,AC50,[4],inconclusive: 0.0234 µM
CCCCc1ccc(O)cc1,AC50,[2],inconclusive: 4.82 µM
same,AC50,[5],inconclusive: 24.2 µM and inconclusive: 11.7 µM
same,AC50,[3],inconclusive: 15.7 µM and inconclusive: 34.8 µM
same,AC50,[4],inconclusive: 25.8 µM
CC(C)(C)C(O)/C(=C\c1ccc(Cl)cc1Cl)n1cncn1 (stereo unspecified),AC50,[2],inconclusive: 1.49 µM
same,AC50,[5],inconclusive: 6.62 µM and inconclusive: 14 µM
same,AC50,[3],inconclusive: 3.71 µM and inconclusive: 1.99 µM
same,outcome,[4],inactive
COP(=O)(OC)O/C(=C\Cl)c1cc(Cl)c(Cl)cc1Cl,AC50,[3],inconclusive: 0.00914 µM
C=C(C)CN(CC)c1c([N+](=O)[O-])cc(C(F)(F)F)cc1[N+](=O)[O-],AC50,[1],inconclusive: 18.7 µM and inconclusive: 17.3 µM
same,AC50,[2],inconclusive: 100 µM
same,AC50,[3],inconclusive: 1.51 µM and inconclusive: 287 nM
same,AC50,[4],inconclusive: 100 µM
COP(=S)(OC)Oc1ccc([N+](=O)[O-])cc1,AC50,[3],inconclusive: 100 µM and inconclusive: 52.7 µM
same,AC50,[4],inconclusive: 100 µM
